This is one part of the list.
B1: Q9UKT9 (peptide)
chain: FACPQCGASFTQKGNLLRHIKL
B2: Q9UKT9 (peptide)
chain: FYCEICGHCFTQKGNLLRHIKL
B3: Q9UKT9 (peptide)
chain: FHCPICGRDFTQKGNLLRHIKL
B4: Q9UKT9 (peptide)
chain: FICNQCGRTFTQKGNLLRHIKL
B5: Q9UKT9 (peptide)
chain: FWCDQCGAFFTQKGNLLRHIKL
B6: Q9UKT9 (peptide)
chain: FHCSVCGHLFTQKGNLLRHIKL
B7: Q9UKT9 (peptide)
chain: FICDVCGASFTQKGNLLRHIKL
B8: Q9UKT9 (peptide)
chain: FSCNVCGARFTQKGNLLRHIKL
B9: Q9UKT9 (peptide)
chain: LNCEICGFICTQKGNLLRHIKL
B10: Q9UKT9 (peptide)
chain: FHCPQCGAFFTQKGNLLRHIKL
B11: Q9UKT9 (peptide)
chain: FTCDQCGARFTQKGNLLRHIKL
B12: Q9UKT9 (peptide)
chain: FYCNICGAIFTQKGNLLRHIKL
B13: Q9UKT9 (peptide)
chain: FCCEVCGASFTQKGNLLRHIKL
B14: Q9UKT9 (peptide)
chain: FWCEICGAPFTQKGNLLRHIKL
B15: Q9UKT9 (peptide)
chain: FRCPICGHGFTQKGNLLRHIKL
B16: Q9UKT9 (peptide)
chain: FDCEICGHPFTQKGNLLRHIKL
B17: Q9UKT9 (peptide)
chain: FVCPVCGADFTQKGNLLRHIKL
B18: Q9UKT9 (peptide)
chain: FHCNICGAEFTQKGNLLRHIKL
B19: Q9UKT9 (peptide)
chain: LICPICGFLCTQKGNLLRHIKL
B20: Q9UKT9 (peptide)
chain: FSCNQCGAVFTQKGNLLRHIKL
B21: Q9UKT9 (peptide)
chain: FNCPVCGATFTQKGNLLRHIKL
B22: Q9UKT9 (peptide)
chain: FGCPVCGAKFTQKGNLLRHIKL
B23: Q9UKT9 (peptide)
chain: FICPICGRTFTQKGNLLRHIKL
B24: Q9UKT9 (peptide)
chain: FTCPQCGAMFTQKGNLLRHIKL
B25: Q9UKT9 (peptide)
chain: FECEVCGARFTQKGNLLRHIKL
B26: Q9UKT9 (peptide)
chain: LHCPICGFHCTQKGNLLRHIKL
B27: Q9UKT9 (peptide)
chain: FICNVCGAFFTQKGNLLRHIKL
B28: Q9UKT9 (peptide)
chain: FCCDVCGAPFTQKGNLLRHIKL
B29: Q9UKT9 (peptide)
chain: FKCEVCGADFTQKGNLLRHIKL
B30: Q9UKT9 (peptide)
chain: FHCEVCGAKFTQKGNLLRHIKL
B31: Q9UKT9 (peptide)
chain: FRCNQCGAFFTQKGNLLRHIKL
B32: Q9UKT9 (peptide)
chain: LECNQCGFNCTQKGNLLRHIKL
B33: Q9UKT9 (peptide)
chain: LLCEICGFVCTQKGNLLRHIKL
B34: Q9UKT9 (peptide)
chain: FKCPICGREFTQKGNLLRHIKL
B35: Q9UKT9 (peptide)
chain: FTCDVCGASFTQKGNLLRHIKL
B36: Q9UKT9 (peptide)
chain: FTCEICGAPFTQKGNLLRHIKL
B37: Q9UKT9 (peptide)
chain: FACPICGRHFTQKGNLLRHIKL
B38: Q9UKT9 (peptide)
chain: FDCSVCGHWFTQKGNLLRHIKL
B39: Q9UKT9 (peptide)
chain: FECNQCGRFFTQKGNLLRHIKL
B40: Q9UKT9 (peptide)
chain: FFCEICGRYFTQKGNLLRHIKL
B41: Q9UKT9 (peptide)
chain: FRCEVCGAAFTQKGNLLRHIKL
B42: Q9UKT9 (peptide)
chain: FTCDICGAWFTQKGNLLRHIKL
B43: Q9UKT9 (peptide)
chain: FVCPICGRVFTQKGNLLRHIKL
B44: Q9UKT9 (peptide)
chain: FICPICGRCFTQKGNLLRHIKL
B45: Q9UKT9 (peptide)
chain: FTCDVCGATFTQKGNLLRHIKL
B46: Q9UKT9 (peptide)
chain: LCCNQCGFKCTQKGNLLRHIKL
B47: Q9UKT9 (peptide)
chain: FQCEVCGAWFTQKGNLLRHIKL
B48: Q9UKT9 (peptide)
chain: FICNQCGAVFTQKGNLLRHIKL
B49: Q9UKT9 (peptide)
chain: FRCEICGRHFTQKGNLLRHIKL
B50: Q9UKT9 (peptide)
chain: FCCEVCGAMFTQKGNLLRHIKL

target: no compound (DMSO); assay: log2 fold change of degron read counts, EGFP-low vs EGFP+ sorted cells; higher = lower degron-EGFP level without compound (poor expression or instability); details: compound: DMSO control; 18 h
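Further: jurkat cells carrying a lentiviral library of mutant zinc finger degrons fused to EGFP plus mCherry, mCherry+ cells FACS sorted, degron abundance counted by next-generation sequencing.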

| Sequence | log2 fold change of degron read counts |
| --- | --- |
| B1 | -3.94 |
| B2 | -0.305 |
| B3 | -0.573 |
| B4 | -1.1 |
| B5 | 0.866 |
| B6 | 0.443 |
| B7 | -2 |
| B8 | -0.245 |
| B9 | 0.966 |
| B10 | 0.26 |
| B11 | -1.19 |
| B12 | 0.756 |
| B13 | -2.84 |
| B14 | 0.0185 |
| B15 | 0.494 |
| B16 | -0.401 |
| B17 | -0.48 |
| B18 | -1.48 |
| B19 | 1.86 |
| B20 | -0.902 |
| B21 | -0.691 |
| B22 | -0.48 |
| B23 | 0.077 |
| B24 | -0.407 |
| B25 | -0.858 |

| Sequence | log2 fold change of degron read counts |
| --- | --- |
| B26 | 1.44 |
| B27 | -0.34 |
| B28 | -0.916 |
| B29 | -1.98 |
| B30 | -1.67 |
| B31 | 0.343 |
| B32 | 0.286 |
| B33 | 0.366 |
| B34 | -0.554 |
| B35 | -1.73 |
| B36 | -0.923 |
| B37 | -0.855 |
| B38 | 1.59 |
| B39 | -0.652 |
| B40 | 0.222 |
| B41 | -1.4 |
| B42 | -1.39 |
| B43 | 0.106 |
| B44 | 0.0287 |
| B45 | -1.65 |
| B46 | 0.475 |
| B47 | -0.975 |
| B48 | -0.326 |
| B49 | -0.955 |
| B50 | -1.15 |
